Laboratory results as given in PubChem BioAssay AID894 (National Center for Advancing Translational Sciences (NCATS), 2007).
Where “and” joins values, the source holds several entries; their conditions need not be identical. Equal entries are not always repeated. Screen size: about 150,000 compounds; about 6,500 (4.3%) were called active. Inconclusive results, whose numbers are uncertain, are shown with a selection of clear calls. The call rests on the fitted dose curve; in most records, active means well fitted inhibition curve with a large enough effect (not every such curve was filed as active); inconclusive means small, poorly fitted or top-dose-only effect, or another doubt; inactive means no such curve, though single readings can be large or run the other way. Potencies beside an inconclusive call are fits to weak or partial responses and may not hold up.

Target: 15-hydroxyprostaglandin dehydrogenase [NAD(+)] (Homo sapiens) (UniProt P15428)
Assay: qHTS Assay for Inhibitors of HPGD (15-Hydroxyprostaglandin Dehydrogenase)
Conditions: purified HPGD, NADH fluorescence kinetic, PGE2 substrate; activity change, negative = inhibition: stronger effect = lower value
Outline: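 NADH formation kinetics: reaction with 30 uM PGE2 and 1 mM NAD+ (final), 20 nM enzyme, Tris-HCl pH 8 with Tween 20, after 15 min compound preincubation at room temperature. Fluorescence change, last versus first of five reads.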
On the % scale 0 is the no-effect control and ±100 the full control effect; potency means the concentration at half of the fitted maximal effect; tags describe the fitted curve by direction and shape.

Chain of UniProt P15428 (P15428 whole entry, looked up): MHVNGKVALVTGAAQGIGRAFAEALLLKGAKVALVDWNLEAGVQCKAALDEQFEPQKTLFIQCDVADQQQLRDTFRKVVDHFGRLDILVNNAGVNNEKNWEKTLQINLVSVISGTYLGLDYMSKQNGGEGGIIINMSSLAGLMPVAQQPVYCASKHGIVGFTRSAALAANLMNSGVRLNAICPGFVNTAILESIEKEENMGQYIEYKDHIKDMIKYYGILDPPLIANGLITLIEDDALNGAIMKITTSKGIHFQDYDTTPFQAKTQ

Activity change, negative = inhibition, inactive:
CCOC(=O)c1c(C)[nH]c(C)c1-c1ccccc1OC -6.99%
Cc1ccc(S(C)(=O)=O)cc1S(=O)(=O)Nc1ccccc1 2.72%
O=C(/C=C/c1ccccc1)NC(=S)NNC(=O)c1cccnc1 -19.9%
Cn1nnc(NC(=O)CSc2ncn[nH]2)n1 -3.42%
CCN=c1scc(C)n1/N=C/c1ccsc1 -12.9%
O=C1OC(/C=C/c2ccc(Cl)cc2Cl)=NC/1=C\c1cccs1 -6.68%
O=C(c1ccc(-c2cccc(Cl)c2)o1)N1CCN(c2ccc([N+](=O)[O-])cc2)CC1 -13.8%
COc1cc2cc[n+]3cc4c(OC)c(OC)ccc4cc3c2cc1OC -23.6%
CCN(CC)CCNS(=O)(=O)c1ccc(Cl)cc1 -7.07%
CCCNC(=O)C(=O)NCCC1=CCCCC1 -1.51%
CN=C(NC1CCCCC1)c1ccc(Cl)cc1 -5.04%
COc1ccc(C2(C(=O)N3CCOCC3)CCOCC2)cc1OC -7.38%
Cn1c2ccccc2n2c(=O)c(Cl)c(-c3ccccc3)c(C#N)c12 -2.58%
O=C1CC(Sc2ncccn2)C(=O)N1c1ccccc1 (stereo not drawn) -9.6%
CCCn1c(SCC(=O)N2c3ccc(F)cc3CCC2C)nnc1-c1ccccn1 (stereo not drawn) -10%
CC1=CN2C(=N)/C(=C\c3cn(CCCOc4ccccc4)c4ccccc34)C(=O)N=C2S1 -16.4%
N#Cc1cc2sc3nnc(-c4ccncc4)n3c2cc1C#N -10.9%
CCCn1c(SCC(=O)c2cc(OC)ccc2OC)nnc1C(C)C -7.15%
COc1ccc(C(C)C(=O)c2ccc(O)cc2O)cc1 (stereo not drawn) -8.88%

Potency, active:
O=C(CC1CCCCC1)NCc1cn2ccsc2n1 22.4 µM
CC(C)(C=O)C1=CC(=O)c2ccccc2C1=O 7.08 µM
CCN(CC)c1ccc(NC(=O)c2nc3nc(C)cc(C(F)F)n3n2)cc1 22.4 µM
O=C(CSc1nnc(-c2ccccc2Br)o1)N1CCc2ccccc2C1 25.1 µM
CCOC(=O)c1ccc(NC(=O)CC2Sc3ncnn3C2=O)cc1 (stereo not drawn) 15.8 µM
COCCNC(=O)CCc1nc(-c2ccccc2)no1 15.8 µM
O=S(=O)(c1ccc(-c2csc(-c3cccnc3)n2)cc1)N1CCCCC1 28.2 µM
Oc1ccc(-c2n[nH]c(=S)n2-c2ccc3c(c2)OCCO3)c(O)c1 14.1 µM
O=C(NCc1ccco1)c1ccc(CNc2c(N3CCCCC3)c(=O)c2=O)cc1 14.1 µM
CSc1ccccc1NC(=O)COc1ccc(Cl)cc1 28.2 µM
CCn1c(COc2ccc3c(c2)OCO3)nnc1SCC(=O)c1ccccc1 22.4 µM
Cc1ccccc1OCc1nc2ccc(S(=O)(=O)N3CCOCC3)cc2[nH]1 14.1 µM

Potency, inconclusive:
COc1ccc(-c2cc(C(F)(F)F)nc(SCCC(=O)N3CCCC3)n2)cc1 14.1 µM [inhibitor, partial curve]
COc1cc(/C=C/C(=O)OCC(=O)N2CCc3ccccc3C2)ccc1O 31.6 µM [inhibitor, partial curve]
COc1ccc(NC(=O)c2cc(-c3cccs3)on2)cc1OC 35.5 µM [inhibitor, single point]
CCOC(=O)c1cc2c(nc1N)CC(C)(C)OC2 28.2 µM [inhibitor, partial curve]
COc1ccc(N2CC(O)=C(c3nc4ccccc4s3)C2=N)c(OC)c1 15.8 µM [inhibitor, partial curve]
COCCn1nnnc1C(c1cc2cc(C)ccc2[nH]c1=O)N1CCN(C2CCCCC2)CC1 (stereo not drawn) 31.6 µM [inhibitor, partial curve]
Cc1ccnc(N2CCC(C(=O)NC3CCCCCC3)CC2)n1 31.6 µM [inhibitor, single point]
CCCCOC(=O)c1ccc(Nc2ncnc3nc[nH]c23)cc1 28.2 µM [inhibitor, partial curve]
Cc1cc(C)c(C)c(OCC(=O)NCC2CCCO2)c1 (stereo not drawn) 22.4 µM [inhibitor, partial curve]
Cc1ccc2oc3nc(C)c(C(=O)O)cc3c(=O)c2c1 31.6 µM [inhibitor, partial curve]
CCOc1ccccc1CNC(=O)c1cc2oc3ccccc3c2n1C 35.5 µM [inhibitor, partial curve]
COc1ccc2nc3oc(C(=O)NC4CCN(Cc5ccccc5)CC4)cc3cc2c1 28.2 µM [inhibitor, partial curve]
COc1ccc(Nc2oc(-c3ccco3)nc2S(=O)(=O)c2ccc(F)cc2)cc1 28.2 µM [inhibitor, partial curve]
CCC(NC(=O)c1ccccc1O)c1ccccc1 (stereo not drawn) 28.2 µM [inhibitor, partial curve]
N.N.O=C(O)C1(C(=O)O)CCC1.[Pt] 28.2 µM [inhibitor, partial curve] and 14.1 µM [inhibitor, partial curve]
CCOc1cc(/C=C(\C#N)C(=O)NCC2CCCO2)ccc1O (stereo not drawn) 15.8 µM [inhibitor, partial curve]
CCN(CC)C(=O)C1CCCN(C(=O)Nc2ccccc2)C1 (stereo not drawn) 35.5 µM [inhibitor, partial curve]
CC1CCCCN1C(=O)c1cc2nc(-c3ccccc3)cc(-c3ccccc3)n2n1 (stereo not drawn) 6.31 µM [inhibitor, partial curve]
Cc1cccc(-[n+]2c(C)cc(C)c3c(=O)[nH]c(=O)[nH]c32)c1 22.4 µM [inhibitor, partial curve]
COc1ccc(-c2cccc(C(=O)NCC(=O)O)c2)cc1 17.8 µM [inhibitor, partial curve]
CC(C)(C)c1ccc(-c2nnc3sc(-c4ccncc4)nn23)cc1 17.8 µM [inhibitor, partial curve]
N#Cc1sc2nc(C3CC3)cc(-c3ccc(Cl)cc3)c2c1N 31.6 µM [inhibitor, single point]
Cc1cc(=O)oc2cc(OC(C)C(=O)O)c(Cl)cc12 (stereo not drawn) 39.8 µM [inhibitor, single point]
Cc1ccc2cc(C#N)c(N3CCCN(S(=O)(=O)c4ccccc4)CC3)nc2c1 20 µM [inhibitor, partial curve, poor fit]
CCCCCC(=O)O[C@@]1(C(C)=O)CCC2C3CCC4=CC(=O)CC[C@@]4(C)C3CC[C@]21C (stereo partly drawn) 3.55 µM [inhibitor, partial curve]
O=C(Nc1sc2c(c1-c1nc3ccccc3[nH]1)CCCC2)C1CC1 31.6 µM [inhibitor, partial curve]
Cc1ccc(NC(=O)/C=C/c2ccc3c(c2)OCO3)nc1 17.8 µM [inhibitor, partial curve]
Cc1cc(C)n2cc(CSc3nnc(-c4ccccc4)o3)nc2n1 14.1 µM [inhibitor, partial curve]
COc1ccccc1-c1cc(-c2ccc(C)cc2)nc(SCc2nnc(-c3ccccc3)o2)c1C#N 14.1 µM [inhibitor, partial curve]
Clc1ccc(Cn2c(/C=C/c3ccco3)nc3ccccc32)cc1 25.1 µM [inhibitor, partial curve]
COc1ccccc1N1CCN(/N=C/c2cc(OC)c(O)c(OC)c2)CC1 35.5 µM [inhibitor, single point]
Cc1cc(C(=O)Nc2sc3c(c2C#N)CCC(C(C)(C)C)C3)no1 (stereo not drawn) 25.1 µM [inhibitor, partial curve]
COc1cc([N+](=O)[O-])ccc1NC(=O)COC(=O)c1n[nH]c2ccccc12 35.5 µM [inhibitor, single point]
COc1ccc2cc(C(=O)OC(C)C)sc(=O)c2c1OC 25.1 µM [inhibitor, single point]
CC(C)Cc1ccc(C(C)C(=O)OCC(=O)c2c[nH]c3ccccc23)cc1 (stereo not drawn) 44.7 µM [inhibitor, single point]
CN(C)CCNC(=O)c1cc2c(=O)n(C)c3ccccc3c2n1C 25.1 µM [inhibitor, partial curve]
CCCN(CC1CC1)C(=O)CSc1nnc(-c2cc(-c3cccs3)nc3ccccc23)o1 28.2 µM [inhibitor, partial curve]
COCCn1c(=O)[nH]c2cc(C(=O)NC(C)C)ccc2c1=O 22.4 µM [inhibitor, partial curve]
CCOc1ccc2nc(NCCNC(=O)C3CC3)c(C)cc2c1 31.6 µM [inhibitor, partial curve]
CCOC(=O)Cc1csc(N/C(=N/S(=O)(=O)c2ccc(Cl)cc2)c2ccccc2)n1 35.5 µM [inhibitor, single point]
Fc1ccc(Nc2nc(-c3ccncc3)nc3ccccc23)cc1F 25.1 µM [inhibitor, partial curve]
CCOC(=O)c1[nH]c2ccc(OC)cc2c1NC(=O)C(C)N1CCSCC1 (stereo not drawn) 31.6 µM [inhibitor, partial curve]
